Assay results reported in PubChem BioAssay AID1508623 (National Center for Advancing Translational Sciences (NCATS), 2021).
Out of some 48,000 compounds screened, about 450 (0.94%) were called active. This list was built around the results that the source calls inconclusive (neither active nor inactive); the mix of calls is not that of the screen. Calls follow the shape of the dose curve; as a rule, active = well fitted inhibition curve with a large enough effect; inconclusive = small, poorly fitted or top-dose-only effect; inactive = no such curve, though single readings can be large or run the other way. A potency beside an inconclusive call is a rough fit, not a confirmed value.

Assay: Primary qHTS for Identification of Small Molecule Inhibitors of Huntingtin Promoter Activity; also: nearly all actives have a fitted effect of over 50% in size
Settings: HEK293 HTT promoter firefly luciferase reporter (activity 0% = vehicle and -100% = no light), 24 h; activity change, negative = inhibition: at 57.5 µM (top of the series)
In short: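 HEK293 Fluc reporter, 2,500 cells/well, 24 h pre-culture; cpds up to 57.5 uM final, 24 h 37 degrees C; Dual-Glo, 10 min RT; normalized vehicle = 0%, zero RLU = -100%.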
Potency is read from the fitted curve at half-maximal effect; tags tell the direction and shape of the fitted curve.

SMILES	Potency	activity change, negative = inhibition
Cc1ccc(NC(=O)C2CCN(S(=O)(=O)c3cccc4nonc34)CC2)cc1C	inconclusive: 25.1 µM [inhibitor, single point]	
CCOc1ccc(Nc2c(S(=O)(=O)c3ccccc3)cnc3ccc(F)cc23)cc1	inconclusive: 39.8 µM [inhibitor, partial curve, poor fit]	
Cc1ccc(S(=O)(=O)c2c(O)cc(C)c(NS(=O)(=O)c3ccc(Cl)cc3)c2C)cc1	inconclusive: 28.2 µM [inhibitor, single point]	
Cc1ccc(S(=O)(=O)CC(=O)N2CCN(c3nc4c(F)cccc4s3)CC2)cc1	inconclusive: 39.8 µM [inhibitor, single point]	
CCn1c2c(c(=O)n3ncc(C(=O)N4CCN(c5ccc(Cl)cc5)CC4)c13)CN(Cc1ccc(OC)cc1)CC2	inconclusive: 3.16 µM [inhibitor, partial curve, poor fit]	
COc1ccc(Nc2cc(C(=O)NCCCN3CCN(c4ccccc4F)CC3)c3ccccc3n2)c(OC)c1	inconclusive: 22.4 µM [inhibitor, partial curve, poor fit]	
O=C1CSC2(C(=O)N(Cc3cccc(F)c3)c3ccccc32)N1c1cccc(C(F)(F)F)c1 (stereo unspecified)	inconclusive: 39.8 µM [inhibitor, partial curve, poor fit]	
CC(C)(F)C[C@H](N[C@@H](c1ccc(-c2ccc(S(C)(=O)=O)cc2)cc1)C(F)(F)F)C(=O)NC1(C#N)CC1		inactive: -7.87%
CC(C)COc1ccc(C(=O)N2CCN(CCc3ccncc3)CC2)cc1	inconclusive: 22.4 µM [inhibitor, partial curve, poor fit]	
Cc1cccc(N2CCN(C(=O)C3CCN(S(=O)(=O)c4c(C)noc4C)CC3)CC2C)c1 (stereo unspecified)	inconclusive: 15.8 µM [inhibitor, partial curve]	
COc1ccc(N(Cc2cccs2)C(=O)c2ccc(OC)c(Cl)c2)cc1	inconclusive: 39.8 µM [inhibitor, single point]	
CCCS(=O)(=O)c1c(S(=O)(=O)CCC)c2cc(C(C)(C)C)ccn2c1C(=O)c1ccccc1	active: 25.1 µM	
COc1cccc(N2CCN(C(=O)C3CCN(S(=O)(=O)c4c(C)noc4/C=C/c4ccccc4F)CC3)CC2)c1	inconclusive: 25.1 µM [inhibitor, partial curve, poor fit]	
O=C(NCCc1ccc(Cl)cc1)c1ccc(CS(=O)(=O)c2ccc(Cl)cc2)o1	inconclusive: 39.8 µM [inhibitor, single point]	
COc1cc(CNC(=O)c2ccc3c(c2)c(C)c(C)n3Cc2cccc(C)c2)cc(OC)c1OC	inconclusive: 35.5 µM [inhibitor, partial curve, poor fit]	
COc1ccc2oc(-c3ccc(NC(=O)c4ccc(Cl)cc4Cl)cc3)nc2c1	inconclusive: 6.31 µM [inhibitor, single point]	
Cc1ccc(CNS(=O)(=O)c2ccc3c(c2)CC(C)N3C(=O)C2CCC2)cc1 (stereo unspecified)	inconclusive: 31.6 µM [inhibitor, partial curve]	
Cc1ccccc1N1CC(c2nc3ccccc3n2Cc2ccc(Br)cc2)CC1=O (stereo unspecified)	inconclusive: 39.8 µM [inhibitor, single point]	
CCOc1cc(C=C2C(=O)N(c3ccccc3)N=C2C)cc(Cl)c1OCC(=O)OC	inconclusive: 19.3 µM [inhibitor, partial curve, poor fit]	

SMILES	Potency	activity change, negative = inhibition
CCCOc1ccc(CNC(=O)C2CCN(C(=O)c3sccc3-n3cccc3)CC2)cc1	inconclusive: 39.8 µM [inhibitor, single point]	
Cc1cc2oc3c(c(=O)c2cc1C)C(c1ccc(C(C)C)cc1)N(c1nc(C)c(C)s1)C3=O (stereo unspecified)		inactive: -7.62%
COc1cc(CNc2ccc3[nH]c(=O)[nH]c3c2)cc(Br)c1OCc1ccccc1F	inconclusive: 20 µM [inhibitor, partial curve, poor fit]	
Cc1ccc(C)n1-c1nnc(N2CCCC(C(=O)NCc3cccc(Br)c3)C2)s1 (stereo unspecified)	inconclusive: 31.6 µM [inhibitor, single point]	
COCCNC(=O)CSc1nc(-c2ccccc2)[nH]c1-c1ccc(C)cc1	inconclusive: 14.1 µM [inhibitor, partial curve, poor fit]	
CC1=C(C(=O)NCc2ccc(Cl)cc2)C2(CCC(C)CC2)OC1=O (stereo unspecified)	inconclusive: 28.2 µM [inhibitor, single point]	
Cc1cccc(C(=O)Nc2ccc(C(=O)OCc3cc(=O)n4c(C)csc4n3)cc2)c1	inconclusive: 15.8 µM [inhibitor, partial curve, poor fit]	
CCCCOc1cccc(C(=O)N(Cc2ccc(Br)o2)C2CCS(=O)(=O)C2)c1 (stereo unspecified)	inconclusive: 31.6 µM [inhibitor, single point]	
Cc1cc(F)ccc1NC(=O)C1CCN(S(=O)(=O)c2ccc3c(c2)CCCC(=O)N3)CC1	inconclusive: 14.1 µM [inhibitor, partial curve, poor fit]	
O=C(Cn1c(=O)c(C(F)(F)F)nc2ccccc21)Nc1ccc(Br)cc1F	inconclusive: 7.94 µM [inhibitor, single point]	
Cc1ccccc1Cn1cc(CCC(=O)NCc2cccc(Br)c2)c2ccccc21	inconclusive: 39.8 µM [inhibitor, single point]	
COc1ccc(S(=O)(=O)NCC(c2ccco2)N2CCN(c3ccc(F)cc3)CC2)cc1 (stereo unspecified)	inconclusive: 35.5 µM [inhibitor, partial curve, poor fit]	
CC(C)(C)NC(=O)CSc1nc(-c2ccc(F)cc2)cc(C(F)(F)F)n1	inconclusive: 39.8 µM [inhibitor, single point]	
COc1ccc(Cc2nc3ccc(C(=O)NCCc4ccc(OC)c(OC)c4)cc3o2)cc1	inconclusive: 39.8 µM [inhibitor, single point]	
COc1cc(NC(=O)c2ccc(-c3ccc(Cl)cc3)o2)cc(OC)c1	inconclusive: 5.44 µM [inhibitor, full curve, poor fit]	
Cc1cc(C)c(S(=O)(=O)Nc2cc(Cl)c3oc4c(c3c2)C(=O)CCC4)cc1C	inconclusive: 0.178 µM [inhibitor, partial curve, poor fit]	
CCCCNC(=O)CN1C(=O)c2c(c3ccccc3n2C)C1c1ccc(OC)cc1 (stereo unspecified)	inconclusive: 8.91 µM [inhibitor, partial curve]	
COc1ccc(Nc2nc(Nc3ccc(OC)cc3OC)nc(N3CCOCC3)n2)c(OC)c1	inconclusive: 28.2 µM [inhibitor, partial curve, poor fit]	
Cc1oc(-c2ccc(Cl)cc2)nc1CN1CCCC(C(=O)NCCc2ccccc2)C1 (stereo unspecified)	inconclusive: 28.2 µM [inhibitor, partial curve, poor fit]	

SMILES	Potency	activity change, negative = inhibition
Cc1ccc(S(=O)(=O)N2CCCc3cc(NS(=O)(=O)c4ccc(C)c(C)c4)ccc32)cc1	inconclusive: 28.2 µM [inhibitor, partial curve]	
c1ccc2c(Oc3nc(Nc4ccc(N5CCOCC5)cc4)c4ncn(C5CCCCC5)c4n3)cccc2c1		inactive: 0.114%
O=C(CS(=O)(=O)c1cccc2nsnc12)N1CCN(c2ccccc2)CC1		inactive: 2.56%
CC(C)c1ccc(CN(Cc2ccco2)c2cnc(S(C)(=O)=O)nc2C(=O)Nc2ccccc2)cc1	inconclusive: 39.8 µM [inhibitor, single point]	
COc1cccc(CNC(=O)C2CCN(C(=O)c3cnn(-c4ccccc4)c3-n3cccc3)CC2)c1	inconclusive: 17.8 µM [inhibitor, partial curve, poor fit]	
COc1ccc(-c2cc(C(C)=O)c(C)n2CCC(=O)NCc2ccc(C)cc2)cc1	inconclusive: 15.8 µM [inhibitor, partial curve]	
COc1ccc(N(C)C(=O)c2cc3c(s2)-c2c(C)cccc2OC3)c(OC)c1	inconclusive: 22.4 µM [inhibitor, partial curve, poor fit]	
CN(CC(=O)NCc1ccc(F)cc1)S(=O)(=O)c1ccc2[nH]c3c(c2c1)CCCC3	inconclusive: 39.8 µM [inhibitor, single point]	
CCc1ccc(-n2c(=O)c3sc4ccccc4c3n(CC(=O)NCc3ccccc3)c2=O)cc1		inactive: 2.15%
COc1cc(Cl)c(C)cc1NC(=O)CCc1nc2cccnc2n1Cc1cccs1	inconclusive: 35.5 µM [inhibitor, partial curve, poor fit]	
Cc1cccc(Cn2c(SCc3ccc(C(=O)NC4CCCC4)cc3)nc3cccnc32)c1	inconclusive: 39.8 µM [inhibitor, single point]	
Cc1ccccc1OCCCCn1c(CCNC(=O)C(C)(C)C)nc2ccccc21	inconclusive: 35.5 µM [inhibitor, single point]	
COc1ccc(OC)c(CNC(=O)c2ccc(NC(=O)c3nsc4ccccc34)cc2)c1	inconclusive: 39.8 µM [inhibitor, single point]	
COc1ccc(CC2=NN3C([C@@H](CCc4ccccc4)[C@@H](C)O)=NC(C)C3C(=O)N2)cc1OC (stereo partly specified)		inactive: 45.1%
O=S(=O)(Nc1ccc(C(F)(F)F)cc1)c1ccc2c(c1)OCCO2	inconclusive: 39.8 µM [inhibitor, single point]	
O=C(c1ccc2c(c1)N(Cc1ccc(Cl)cc1)C(=O)c1ccccc1S2=O)N1CCC(Cc2ccccc2)CC1 (stereo unspecified)	inconclusive: 25.1 µM [inhibitor, partial curve, poor fit]	
Cc1ccccc1OCC(=O)Nc1ccc2nc(SCC(N)=O)sc2c1		inactive: 1.61%
COC(=O)c1ccc(NC(=O)C(=O)NCC(c2cccnc2)N2CCc3ccccc32)cc1 (stereo unspecified)	inconclusive: 31.6 µM [inhibitor, single point]	
